# Data reported in PubChem BioAssay AID686978 (National Center for Advancing Translational Sciences (NCATS), 2013).
# Several values for one entry are separate records, joined by “and”; a condition that tells them apart may be missing. Equal values may be shown once. The whole screen tested about 420,000 compounds, of which about 64,000 (15%) were called active. Inconclusive means that the source gave no clear call. Such entries were picked first, then a sample of the others. Calls come from the whole dose curve; as a rule, active = well fitted inhibition curve with a large enough effect; inconclusive = small, poorly fitted or top-dose-only effect; inactive = flat fitted curve, though single readings scatter. Potencies beside an inconclusive call are fits to weak or partial responses and may not hold up.
# Experiment: qHTS for Inhibitors of human tyrosyl-DNA phosphodiesterase 1 (TDP1): qHTS in cells in absence of CPT; note: nearly all actives have a fitted effect of over 55% in size
# Settings: DT40 Tdp1-/- hTDP1 cells, no CPT, ATP luminescence, 48 h; activity change, negative = growth inhibition: at 46.2 µM (top of the series) unless noted
# In short: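 A cellular qHTS used chicken DT40 cells lacking endogenous Tdp1 but carrying stably transfected human TDP1. Compounds were applied without camptothecin, and cell growth kinetics were judged by ATP-dependent luminescence after ≥48 hr.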
# % is set by controls: 0 for no effect and ±100 for the full control effect; potency is the fitted concentration of half-maximal effect; tags give direction and shape of the fitted curve.
Compound,Potency,"activity change, negative = growth inhibition"
COc1cccc(NC(=O)Cc2ccc(NC(=O)N3CCCCc4ccccc43)cc2)c1,"inconclusive: 29.1 µM [inhibitor, single point]",
CCCN1C(=O)c2[nH]nc(-c3ccc(F)cc3)c2C1c1ccc(O)c(OCC)c1 (stereo not drawn),"inconclusive: 29.1 µM [inhibitor, single point]",
CCn1c(SCC(=O)Nc2nc3ccc(OC)cc3s2)nnc1-c1ccoc1C,,inconclusive: -35.6% [inhibitor]
COc1ccc(NC(=O)C[C@H]2C(=O)N(c3ccc(OC)cc3)C[C@@H]2c2ccc(Br)cc2)cc1,active: 23.1 µM,
Cc1ccc(C)c2c1cc(C)c1nnc(SCC(=O)N3CCCc4ccccc43)n12,active: 14.6 µM,
NC(=O)c1cc2cc(Cl)ccc2oc1=Nc1cccc(C(F)(F)F)c1,"inconclusive: 29.1 µM [inhibitor, single point]",
CCc1cccc(Nc2c3c(nc4ncnn24)CCC3)c1,active: 20.6 µM,
Nc1ccc(N)c([N+](=O)[O-])c1,"inconclusive: 38.6 µM [inhibitor, single point]",
CC(=O)c1cccc(NC(=O)C2CCN(c3nnc(-n4cccc4)s3)CC2)c1,"inconclusive: 25.9 µM [inhibitor, single point]",
COc1cccc(CNC(=S)Nc2cc(C)cc(C)c2)c1,,inactive: -8.03%
CC(C)C[C@@H]1Cc2[nH][nH]c(=O)c2[C@H](c2ccc(Cl)cc2)O1,,inactive: -25.3%
CC1(C2(O)CCCCC2)NCCc2ccccc21 (stereo not drawn),"inconclusive: 29.1 µM [inhibitor, single point]",
CN(C)c1ccc(/C=N/NC(=O)CN(c2cccc(Cl)c2)S(C)(=O)=O)cc1Br,active: 16.4 µM,
Cc1cccc(-c2nc3c4ccccc4n(CC(=O)Nc4cc(F)ccc4F)c(=O)n3n2)c1,,inactive: -21.8%
Cc1ccc(-n2ccnc2SCC(=O)N(CC(C)C)C2CCS(=O)(=O)C2)c(C)c1 (stereo not drawn),active: 18.4 µM,
CC(=O)N(C)c1ccc(NC(=O)/C=C/c2ccccc2Cl)cc1,active: 13 µM,
Cc1nc(N)[nH]c(=O)c1CCCNS(=O)(=O)c1ccc([N+](=O)[O-])cc1,,inactive: -2.6%
Cc1ccccc1Cn1c(=O)n(CCCCC(=O)NCc2ccc3c(c2)OCO3)c(=O)c2ccccc21,"inconclusive: 23.1 µM [inhibitor, single point]",
CC1=C(C(=O)Nc2ccccc2)C2(CCCCC2)C(C#N)=C(SCC(N)=O)N1,active: 16.4 µM,
CN(C)Cc1nc2ccccc2c(=O)n1Cc1nc(-c2cc3ccccc3o2)cs1,active: 18.4 µM,
Cc1ccc(NC(=O)N[C@H](C(=O)O)C(C)C)c(C)c1,"inconclusive: 23.1 µM [inhibitor, single point]",
CCOc1cc(/C=N/O)ccc1OCc1ccc(C)cc1,active: 23.1 µM,
CC(=O)c1ccc(NC(=O)C(Cc2ccccc2)NC(=O)c2ccco2)cc1 (stereo not drawn),"inconclusive: 22.4 µM [inhibitor, single point]",
Nc1nc2c(nnn2C2CC(O)C(CO)O2)c(=O)[nH]1 (stereo not drawn),"inconclusive: 29.1 µM [inhibitor, partial curve, poor fit]",
CCCNC(=O)C1CN(S(=O)(=O)c2ccc(C)cc2)c2ccccc2O1 (stereo not drawn),"inconclusive: 16.4 µM [inhibitor, single point]",

Compound,Potency,"activity change, negative = growth inhibition"
CCN(CC)S(=O)(=O)c1ccc(N/N=C(\C)c2cccnc2)nc1,,inactive: -5.1%
Cc1ccc2nc(N(CCCN(C)C)C(=O)c3cc4ccccc4oc3=O)sc2c1,"inconclusive: 25.9 µM [inhibitor, single point]",
COc1cc(/C=N/NC(=O)c2ccc(CN3C(=O)c4cccc5cccc3c45)cc2)cc(OC)c1O,"inconclusive: 20.6 µM [inhibitor, single point]",
CCOc1ccc(C(=O)Nc2c(C)nc(Nc3ccccc3)nc2Nc2ccccc2)cc1OCC,"inconclusive: 18.4 µM [inhibitor, single point]",
CCC1=NN=C(c2ccc(F)cc2)C(c2c[nH]c3ccccc23)N1O (stereo not drawn),,inconclusive: -30.7% [inhibitor]
COC(=O)/C(=C/c1c[nH]c2ccccc12)[N+](=O)[O-],,inactive: -16%
CCCCNCc1ccc(SC)cc1,,inactive: -13.6%
COc1ccc(OC)c(S(=O)(=O)N2CCC(NC(=O)c3ccccc3)CC2)c1,"inconclusive: 29.1 µM [inhibitor, single point]",
OC(COc1cc(Cl)c(Cl)cc1Cl)CN1CCN(c2ncccn2)CC1 (stereo not drawn),"inconclusive: 29.1 µM [inhibitor, single point]",
O=C(CCN1C(=O)/C(=C\c2ccc(F)cc2)SC1=S)Nc1ccc(O)cc1,active: 23.1 µM,
Cc1ccc(CN(C)C[C@H]2OCc3cnnn3CCCC(=O)N([C@@H](C)CO)C[C@@H]2C)cc1,,inconclusive: -25.2% [inhibitor]
CC(OC(=O)c1ccc(O)cc1)C(=O)Nc1ccc(Oc2ccccc2)cc1 (stereo not drawn),active: 20.6 µM,
CN(CC(=O)Nc1cccc(S(=O)(=O)N2CCCCC2)c1)Cc1ccc(F)cc1,"inconclusive: 29.1 µM [inhibitor, single point]",
COc1cc(C(=O)NCCc2ccc(S(N)(=O)=O)cc2)cc(OC)c1OC,,inactive: 5.66%
CCOC(=O)c1c(N)sc2c(OCC)c(Br)ccc12,"inconclusive: 29.1 µM [inhibitor, single point]",
Cn1c(=O)n(Cc2ccccc2Br)c2ccccc21,,inactive: -29%
O=C(NC1CCCc2c1cnn2-c1ccccc1F)c1ccncc1 (stereo not drawn),active: 5.8 µM,
COc1cccc(COc2ccc3c(C)cc(=O)oc3c2)c1,"inconclusive: 13 µM [inhibitor, partial curve, poor fit]",
CC(C)CN(C(=O)CN(C)CC(=O)Nc1ccccc1C#N)c1c(N)n(CC(C)C)c(=O)[nH]c1=O,,inactive: -2.4%
S=c1[nH]nc(-c2ccc3ccccc3n2)n1-c1ccc(Cl)cc1,"inconclusive: 20.6 µM [inhibitor, single point]",
Cc1ccc(-c2nc3sc4c(c3c(=O)n2N)CC(C)(C)OC4)cc1,,inconclusive: -30.3% [inhibitor]
Cc1ccc(C)c(OCCn2cc(/C=C(\C#N)C(=O)NCc3cccs3)c3ccccc32)c1,,inactive: -2.4%
Cc1ccc(NC(=O)CCCN2C(=O)NC(C)(C)C2=O)cc1,,inactive: -4.97%
O=C(NCc1ccncc1)Nc1ccccc1,,inactive: 4.95%
COc1cc(Cl)ccc1OC1(C)CCN(Cc2ccc(-c3ccccn3)cc2)C1 (stereo not drawn),active: 14.6 µM,

Compound,Potency,"activity change, negative = growth inhibition"
Cc1ccccc1NC(=S)N(C)C1(c2ccccc2Cl)CCCCC1=O (stereo not drawn),,inconclusive: -33.3% [inhibitor]
Brc1ccc(-c2csc(NNC3=NCCCCC3)n2)cc1,"inconclusive: 29.1 µM [inhibitor, single point]",
Cc1ccccc1NC(=O)Cc1nc(COC(=O)c2cc([N+](=O)[O-])ccc2NCCO)cs1,"inconclusive: 16.4 µM [inhibitor, partial curve]",
Cc1cs/c(=N\N=C\c2ccc(O)cc2)n1Cc1ccco1,"inconclusive: 25.9 µM [inhibitor, single point]",
COc1ccc(CCNc2nc(-c3ccccc3OC)cc(C(F)(F)F)n2)cc1OC,"inconclusive: 29.1 µM [inhibitor, single point]",
COc1ccc(N2CCN(C(=O)C(=O)c3cn(CC(=O)N4CCCCCC4)c4ccccc34)CC2)cc1,"inconclusive: 16.4 µM [inhibitor, single point]",
O=C(NCc1cccnc1)c1ccc(-c2cccc(Cl)c2Cl)o1,"inconclusive: 29.1 µM [inhibitor, single point]",
O=C(c1cccc(F)c1)N1CCC2(CC1)CN(c1ccc(-c3ccccc3)cc1)C2,active: 14.6 µM,
CC(C)Nc1cc(N2CCN(C3CCCCC3)CC2)c2noc3c2c1C(=O)c1ccccc1-3,"inconclusive: 16.4 µM [inhibitor, single point]",
CCC(c1nnnn1C1CCCC1)N1CCN(c2ccccc2F)CC1 (stereo not drawn),"inconclusive: 29.1 µM [inhibitor, single point]",
CCCCC(O)(CCN1CCOCC1)c1ccc(Cl)cc1 (stereo not drawn),"inconclusive: 22.4 µM [inhibitor, single point]",
CCOC(=O)C(C)Sc1nc2c(c(-c3cccs3)c1C#N)CCC2 (stereo not drawn),"inconclusive: 25.9 µM [inhibitor, single point]",
CCOC(=O)N1CCN(C2=C(NS(=O)(=O)c3ccc(C)cc3)C(=O)c3ccccc3C2=O)CC1,"inconclusive: 29.1 µM [inhibitor, single point]",
COc1ncc2nc(-c3ccccc3)c(=O)n(-c3ccccc3)c2n1,,inactive: 32.9%
Cc1ccc(C)n1-n1c(C)nc2scc(-c3ccccc3)c2c1=O,"inconclusive: 25.9 µM [inhibitor, single point]",
CC(=O)c1sc(-c2ccc(F)cc2F)nc1C,,inactive: -0.49%
CC1CCCN(C(=O)c2cn(-c3ccccc3)nc2-c2cccnc2)C1 (stereo not drawn),"inconclusive: 29.1 µM [inhibitor, single point]",
CCOC(=O)c1[nH]c(C)c(CCC(=O)Nc2ccc(C)cc2Cl)c1C,,inactive: -27.4%
O=C(CSc1ccc(-c2ccc(-n3cccn3)cc2)nn1)Nc1ccccc1F,,inactive: -15.3%
O=C(Nc1nc(-c2ccccc2)ns1)c1ccncc1,"inconclusive: 20.6 µM [inhibitor, single point]",
CCOC(=O)c1csc(NC(=O)c2ccc(OCC)cc2)n1,"inconclusive: 25.9 µM [inhibitor, single point]",
Cc1ccc(-c2nc(CCNC(=O)C(=O)Nc3ccc(C)c(Cl)c3)cs2)cc1,"inconclusive: 32.6 µM [inhibitor, single point]",
COc1ccccc1C(=O)NCC(=O)OCC(=O)c1cccc2ccccc12,"inconclusive: 7.31 µM [inhibitor, partial curve, poor fit] and inconclusive: 17.8 µM [inhibitor, single point]",
